# Reference: paper PMC4336329 (PLoS ONE, 2015)
# In all, about 310,000 compounds went through this assay and about 2,200 (0.71%) showed an effect of 50% or more. Effects have a minus sign here. The list shows a part of the results. Where a SMILES comes first, the peptide text is derived from it. [ ]: non-standard residue; d: D form. The star is where a group is joined. ξ: configuration not given here. Cbz = O=C(OCc1ccccc1)*; ξK = NCCCCC(N)C(=O)O
# Molecular target: human ether-à-go-go-related gene (hERG) potassium channel (human, UniProt Q12809)
# Sequence (Q12809 whole entry, looked up): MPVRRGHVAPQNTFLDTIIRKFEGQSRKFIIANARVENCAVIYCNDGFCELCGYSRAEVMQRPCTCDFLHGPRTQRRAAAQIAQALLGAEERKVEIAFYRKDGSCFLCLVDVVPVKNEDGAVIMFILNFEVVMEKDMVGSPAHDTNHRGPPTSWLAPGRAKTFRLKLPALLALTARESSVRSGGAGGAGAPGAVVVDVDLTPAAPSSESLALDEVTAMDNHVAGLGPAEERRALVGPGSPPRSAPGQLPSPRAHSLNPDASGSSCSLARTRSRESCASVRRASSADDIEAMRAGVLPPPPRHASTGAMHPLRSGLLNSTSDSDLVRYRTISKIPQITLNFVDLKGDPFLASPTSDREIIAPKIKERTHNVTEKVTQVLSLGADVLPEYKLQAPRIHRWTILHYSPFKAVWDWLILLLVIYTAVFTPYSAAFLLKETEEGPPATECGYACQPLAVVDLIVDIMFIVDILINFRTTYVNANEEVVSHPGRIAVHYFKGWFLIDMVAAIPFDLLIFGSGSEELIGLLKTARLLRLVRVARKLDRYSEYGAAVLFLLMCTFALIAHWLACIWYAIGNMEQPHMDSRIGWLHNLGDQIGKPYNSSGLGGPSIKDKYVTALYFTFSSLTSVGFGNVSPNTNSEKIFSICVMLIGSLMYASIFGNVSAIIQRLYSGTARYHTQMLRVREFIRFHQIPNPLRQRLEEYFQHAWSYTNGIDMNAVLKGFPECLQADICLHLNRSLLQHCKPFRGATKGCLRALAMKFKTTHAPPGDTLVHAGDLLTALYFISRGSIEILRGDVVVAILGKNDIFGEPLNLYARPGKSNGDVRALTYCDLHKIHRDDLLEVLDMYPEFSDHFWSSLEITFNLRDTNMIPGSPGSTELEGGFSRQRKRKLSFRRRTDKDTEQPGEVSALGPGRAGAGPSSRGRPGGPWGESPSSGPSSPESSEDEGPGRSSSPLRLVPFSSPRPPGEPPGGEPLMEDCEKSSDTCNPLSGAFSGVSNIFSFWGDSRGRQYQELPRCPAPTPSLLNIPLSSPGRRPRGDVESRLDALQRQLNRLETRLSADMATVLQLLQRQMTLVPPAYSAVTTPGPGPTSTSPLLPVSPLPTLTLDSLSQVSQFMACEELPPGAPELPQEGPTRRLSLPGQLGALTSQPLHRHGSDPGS
# Test: primary screen, population patch clamp on CHO cells stably expressing hERG
row,SMILES,"hERG current change (%, negative = inhibition) at 1uM"
1,C=CCNc1nc(Nc2ccc([N+](=O)[O-])cc2)nc(N2CCCC2)n1,4.66%
2,Cc1ccc(NC(=O)NNC(=O)CN2C(=O)COc3ccccc32)cc1,6.96%
3,CC(C)Cn1c(CNC(=O)c2ccccc2)nc2ccccc21,2.27%
4,NCCCC[C@@H](C(=O)NCCCCCCCCCCC(=O)N1CCNCC1)n1cc(CCO)nn1,18.5%
5,O=C(CCc1nc2ccccc2c(=O)[nH]1)N1CCN(S(=O)(=O)c2ccc(Cl)c(C(F)(F)F)c2)CC1,-3.59%
6,O=C(Cn1nnc(-c2cccc(C(F)(F)F)c2)n1)NC(=O)NCc1ccco1,14.5%
7,CCOC(=O)c1c2c([nH]c(=S)c1C#N)CCCC2,7.1%
8,COc1ccc(NC(=O)O/N=C/c2ccc(Br)cc2)cc1,33.9%
9,CC(C)c1ccccc1NC(=O)c1cccnc1,9.23%
10,CC1CC(C)CN(CCCNC(=O)C2CCN(c3nnc(-n4cccc4)s3)CC2)C1 (centres unmarked),5.15%
11,COc1ccccc1C(=O)NCCn1cc(SCC(=O)Nc2cc(C)on2)c2ccccc21,3.01%
12,COC(=O)C(CCCCNC(=O)OCc1ccccc1)NC(=O)CN.Cl (centres unmarked) (H-Gly-[ξK](Cbz)-OMe),4.94%
13,Cn1c(SCC(=O)c2ccccc2)nnc1-c1cccc(N)c1,6.25%
14,CSc1ccc(/C=N/NC(=O)c2cccc(O)c2)cc1,11.9%
15,COC(=O)C1CSC2c3ccccc3C(=O)N12 (centres unmarked),10.3%
16,C=CCNC(=S)Nc1ccc(OC)c(S(=O)(=O)N2CCOCC2)c1,11.6%
17,OC[C@@H](O)[C@@H](O)[C@H](O)[C@@H](O)CO,7.41%
18,CCOC(=O)Cn1c(=O)sc2ccccc21,-3.67%
19,COc1ccccc1-n1c(SCC(=O)N2CCc3ccccc32)nc2c(c1=O)SCC2,10.4%
20,CCOC(=O)Cc1csc(NC(=O)C(CC(C)C)NC(=O)C2CCCCC2)n1 (centres unmarked),8.87%

row,SMILES,"hERG current change (%, negative = inhibition) at 1uM"
1,Cc1cc(=O)oc2cc(NC(=O)c3cccc(S(=O)(=O)N(C)C)c3)ccc12,9.55%
2,CCc1nnc(NC(=O)CN2C(=O)NC3(CCCC3)C2=O)s1,4.75%
3,O=C1CCC(C(=O)N(CCO)Cc2ccccc2)CN1CCCN1CCOCC1 (centres unmarked),27.1%
4,Cc1ccc(N2C(=O)CC(C3CCCO3)C2=O)cc1 (centres unmarked),15.9%
5,CCOC(=O)N/N=C\c1ccc([N+](=O)[O-])o1,14.9%
6,CCOC(=O)C(=O)Nc1ccccc1C#N,10.9%
7,O=C(Nc1ncc(Cc2cccc(Cl)c2)s1)C1CCCO1 (centres unmarked),5.15%
8,CCCc1nn(C)c(C(=O)Nc2ccc(C(C)(C)C)cc2)c1Cl,14.7%
9,O=C(CNC(=O)c1ccco1)Nc1ccc(Br)cc1,13.7%
10,O=C(c1cnn2c(C(F)F)cc(-c3ccccc3)nc12)N1CCc2ccccc21,16%
11,Cc1n[nH]c(=S)n(/N=C/c2cccs2)c1=O,14.2%
12,CC(C)CC(NC(N)=O)C(=O)OCC(=O)NC(=O)NC1CCCC1 (centres unmarked),13.2%
13,Cc1cccc(-c2nc3ccc(C(=O)NCCN4CCN(C)CC4)cc3nc2-c2cccc(C)c2)c1,16.5%
14,O=C(c1cccnc1)N1CCN(C(=O)c2cccc(Cl)c2)CC1,16.3%
15,CC(=O)c1ccc[n+](CC(=O)NC(C)c2ccccc2)c1.[Cl-] (centres unmarked),18.2%
16,Cc1ccc(C(=O)CC2(O)C(=O)N(Cc3ccccc3)c3ccccc32)o1 (centres unmarked),-7.03%
17,CCOC(=O)c1sc(N/N=C/c2cccc(C)c2)nc1C,6.98%
18,COC(=O)c1ccc(-c2ccco2)n1Cc1cc(C)ccc1C,11.4%
19,COC(=O)C1=C(N)Oc2c(c(=O)oc3ccccc23)C1c1cccnc1 (centres unmarked),-11%
20,CCc1cccc2c(C(=O)C(NCCCOC)c3ccccc3)c[nH]c12 (centres unmarked),8.24%

row,SMILES,"hERG current change (%, negative = inhibition) at 1uM"
1,Cc1ccc(OCCNC(=O)CNC(=O)c2ccccc2Cl)cc1,10.7%
2,Cc1ccc(C(=O)C=CNNC(=O)c2ccccc2)cc1,0.146%
3,CC(=O)CN1C(=O)NC(c2ccccc2)(c2ccccc2)C1=O,16.9%
4,CC(C)N(Cc1ccccc1)C(=O)COC(=O)c1ccc2ncsc2c1,17%
5,O=C(NC1CCCC1)c1c(O)nc2sccn2c1=O,6.98%
6,Cc1ccccc1C(=O)N1CCN(c2ccc(NC(=O)c3ccco3)cc2)CC1,2.89%
7,O=c1oc2ccccc2c(O)c1/C=C1\C=Nc2ccccc21,2.66%
8,Cc1cc(C)c2c(NC(=S)Nc3ccccc3)n[nH]c2n1,9.64%
9,C[C@@H]1NS(=O)(=O)[C@H]2C[C@@H]3C=C[C@]2(O3)[C@H]1OC(=O)c1ccccc1Br,11.5%
10,CC(/C=C/c1ccccc1F)=N\NC(=O)c1ccc(Cl)cc1,9.99%
11,CCn1c(COc2ccc(C)cc2)nnc1SCc1ccc(C#N)cc1,-20%
12,O=C(Nc1c(F)cccc1F)C(c1ccccc1)c1ccccc1,12.4%
13,O=C(NNC(=O)[C@H]1CC=CC[C@H]1C(=O)O)c1ccc(Cl)cc1Cl,9.02%
14,Cc1ccccc1OCC(=O)N(CC(C)C)c1c(N)n(CC(C)C)c(=O)[nH]c1=O,-0.652%
15,CC(C)CCNC(=O)CCCOc1cc(=O)n(C)c2ccccc12,10.1%
16,Cl.Nc1cnn(Cc2ccc(F)cc2)c1,10.8%
17,CN1CCCC(OC(=O)c2ccc(S(=O)(=O)N(C)C)cc2)C1.Cl (centres unmarked),12.9%
18,CC(C)c1onc(C(=O)NC(C)c2ccccc2)c1[N+](=O)[O-] (centres unmarked),7.24%
19,COC(=O)C1C(=O)C2=C(CC1C)NC(=O)CC2c1ccccc1 (centres unmarked),7.21%
